In ChEMBL document CHEMBL1201862, “PubChem BioAssay data set” (2004):

Each compound was assayed on NCI-H322M (assay: NCI anticancer screen, dose series, 48 h).
With CC1=COC2=C(C)C(=O)C(=O)c3c(C)ccc1c32 [MANSONONE F] the GI50 was inactive: 2.65 µM. COc1ccc2[nH]cc(CCNC(C)=O)c2c1 [MELATONIN] was tested, and the GI50 was inactive: > 100 µM. With COc1c(OC)c(OC)c2c(c1OC)c(=O)c1ccccc1n2C [MELICOPICINE] the GI50 was inactive: > 100 µM. In the case of CC1=CC(=O)c2ccccc2C1=O [MENADIONE], the GI50 is reported as inactive: 15.3 µM. With Sc1ncnc2nc[nH]c12 [MERCAPTOPURINE ANHYDROUS] the GI50 was inactive: 9.46 µM. Nc1nccc(-c2c[nH]c3cc(Br)ccc23)n1 [MERIDIANIN D] was tested, and the GI50 was inactive: 24.1 µM. In the case of O=S(=O)(O)CCS [MESNA], the GI50 is reported as inactive: > 100 µM. CN(Cc1cnc2nc(N)nc(N)c2n1)c1ccc(C(=O)N[C@@H](CCC(=O)O)C(=O)O)cc1 [METHOTREXATE] was tested, and the GI50 was active: 0.604 µM. For COc1c2occc2cc2ccc(=O)oc12 [METHOXSALEN], the GI50 was inactive: > 100 µM. For CNC(C)Cc1ccccc1OC (centres undefined) [METHOXYPHENAMINE HYDROCHLORIDE], the GI50 was inactive: > 100 µM. In the case of COC(=O)c1cc(O)ccc1O [METHYL 2,5-DIHYDROXYBENZOATE], the GI50 is reported as inactive: > 100 µM. With C=C(C)[C@@H]1CC[C@]2(C(=O)OC)CC[C@]3(C)[C@H](CC[C@@H]4[C@@]5(C)CC[C@H](O)C(C)(C)[C@@H]5CC[C@]43C)[C@@H]12 [METHYL BETULINATE] the GI50 was inactive: 19.5 µM. CC/C=C\C/C=C\C/C=C\CCCCCCCC(=O)OC [METHYL LINOLENATE] was tested, and the GI50 was inactive: > 100 µM. With COC(=O)C1(O)c2ccccc2N=C2C(=O)c3ccccc3N21 (centres undefined) [METHYLISATOID] the GI50 was inactive: > 100 µM. For Cc1nc(N)nc(N)c1-c1ccc(Cl)c(Cl)c1 [METOPRINE], the GI50 was inactive: 2.07 µM. For Clc1ccc(COC(Cn2ccnc2)c2ccc(Cl)cc2Cl)c(Cl)c1 (centres undefined) [MICONAZOLE NITRATE], the GI50 was inactive: 10.7 µM. CCCCCCCCCCCCCCCCOP(=O)([O-])OCC[N+](C)(C)C [MILTEFOSINE] was tested, and the GI50 was inactive: 25.2 µM. In the case of COCC(O)Cn1ccnc1[N+](=O)[O-] (centres undefined) [MISONIDAZOLE], the GI50 is reported as inactive: > 100 µM. In the case of O=C(O)Cc1cccc2c(=O)cc(-c3ccccc3)oc12 [MITOFLAXONE], the GI50 is reported as inactive: > 250 µM. CO[C@@]12[C@H](COC(N)=O)C3=C(C(=O)C(C)=C(N)C3=O)N1C[C@@H]1N[C@@H]12 [MITOMYCIN] was tested, and the GI50 was active: 0.995 µM. With Clc1ccc(C(c2ccccc2Cl)C(Cl)Cl)cc1 (centres undefined) [MITOTANE] the GI50 was inactive: 20.2 µM. In the case of NC(=O)c1ncn2c(=O)n(CCCl)nnc12 [MITOZOLOMIDE], the GI50 is reported as inactive: 205 µM. CCOC(=O)Nc1cc2c(c(N)n1)N=C(c1ccccc1)[C@H](C)N2 [MIVOBULIN ISETHIONATE] was tested, and the GI50 was active: < 0.0001 µM. CCOC(=O)C1=C(C)NC(=S)NC1c1cccc(O)c1 (centres undefined) [MONASTROL] was tested, and the GI50 was inactive: 35.9 µM. For O=c1c(O)c(-c2ccc(O)cc2O)oc2cc(O)cc(O)c12 [MORIN], the GI50 was inactive: > 100 µM. For C=C1C(=O)O[C@@H]2C(=O)[C@@H](C)[C@@H]3C=CC(=O)[C@@]3(C)[C@@H](OC(=O)/C(C)=C\C)[C@H]12 [MULTISTATIN], the GI50 was inactive: 13.2 µM. CC1=CC(=O)c2[nH]c3ccccc3c2C1=O [MURRAYAQUINONE A] was tested, and the GI50 was inactive: > 25 µM. COc1c(C)c2c(c(O)c1C/C=C(\C)CCC(=O)O)C(=O)OC2 [MYCOPHENOLIC ACID] was tested, and the GI50 was inactive: 4.19 µM. CC(C)c1oc(=O)cc2c1C(O)C1OC(=O)C3(C)C(O)C4OC4C2(C)C13 (centres undefined) [NAGILACTONE] was tested, and the GI50 was inactive: 5.15 µM. With CCn1cc(C(=O)O)c(=O)c2ccc(C)nc21 [NALIDIXIC ACID] the GI50 was inactive: > 100 µM. For O=c1[nH]c2c(O)cccc2c2cc3c(c(O)c12)OCO3 [NARCIPRIMINE], the GI50 was inactive: 18.8 µM. C[C@@H]1CC[C@@]2(C)[C@H](C)/C(=C\COC(=O)/C=C/c3ccc(O)c(O)c3)CC[C@@]12C [NAVICULYL CAFFEATE] was tested, and the GI50 was inactive: 12.5 µM. With C/C1=C\C=C(\C(C)C)CC/C(C(=O)O)=C\CC/C(C)=C/CC1 [NEOCROTOCEMBRANEIC ACID] the GI50 was inactive: 18.5 µM. For Cn1c2nc3ccccc3c-2cc2ccccc21 [NEOCRYPTOLEPINE HYDROCHLORIDE], the GI50 was inactive: 2.6 µM. For Cn1c2nc3ccccc3c-2cc2ccccc21 [NEOCRYPTOLEPINE], the GI50 was inactive: 2.23 µM. Cc1ccc2ccc3ccc(C)nc3c2n1 [NEOCUPROINE] was tested, and the GI50 was inactive: 1.96 µM. For Cn1cc(NC(=O)c2cc(NC(=O)CNC(=N)N)cn2C)cc1C(=O)NCCC(=N)N [NETROPSIN CHLORIDE], the GI50 was inactive: > 100 µM. COC(=O)C1=C(C)NC(C)=C(C(=O)OCCCN2CCC(c3ccccc3)(c3ccccc3)CC2)[C@H]1c1cccc([N+](=O)[O-])c1 [NIGULDIPINE] was tested, and the GI50 was inactive: 1.87 µM. NC(=O)c1cc([N+](=O)[O-])cc([N+](=O)[O-])c1 [NITROMIDE] was tested, and the GI50 was inactive: > 100 µM.

Where a name gives a salt, the structure may show the parent alone.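 Following 48 hours of exposure in 96-well plates, responses at five concentrations were used to interpolate endpoints linearly. GI50 = concentration required for 50% inhibition of growth.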 Active and inactive are the calls of the source. No stated cut-off is given here; in the data, active = GI50 up to about 1.1 µM and inactive = higher.
